Results taken from paper PMC4336329 (PLoS ONE, 2015).
Out of some 310,000 compounds screened, about 2,200 (0.71%) showed an effect of 50% or more. The effect is printed as a negative number. Some of the results follow.

Molecular target: human ether-à-go-go-related gene (hERG) potassium channel (human, UniProt Q12809)
Test: primary screen, population patch clamp on CHO cells stably expressing hERG

Sequence of human ether-à-go-go-related gene (hERG) potassium channel (Q12809 whole entry, looked up): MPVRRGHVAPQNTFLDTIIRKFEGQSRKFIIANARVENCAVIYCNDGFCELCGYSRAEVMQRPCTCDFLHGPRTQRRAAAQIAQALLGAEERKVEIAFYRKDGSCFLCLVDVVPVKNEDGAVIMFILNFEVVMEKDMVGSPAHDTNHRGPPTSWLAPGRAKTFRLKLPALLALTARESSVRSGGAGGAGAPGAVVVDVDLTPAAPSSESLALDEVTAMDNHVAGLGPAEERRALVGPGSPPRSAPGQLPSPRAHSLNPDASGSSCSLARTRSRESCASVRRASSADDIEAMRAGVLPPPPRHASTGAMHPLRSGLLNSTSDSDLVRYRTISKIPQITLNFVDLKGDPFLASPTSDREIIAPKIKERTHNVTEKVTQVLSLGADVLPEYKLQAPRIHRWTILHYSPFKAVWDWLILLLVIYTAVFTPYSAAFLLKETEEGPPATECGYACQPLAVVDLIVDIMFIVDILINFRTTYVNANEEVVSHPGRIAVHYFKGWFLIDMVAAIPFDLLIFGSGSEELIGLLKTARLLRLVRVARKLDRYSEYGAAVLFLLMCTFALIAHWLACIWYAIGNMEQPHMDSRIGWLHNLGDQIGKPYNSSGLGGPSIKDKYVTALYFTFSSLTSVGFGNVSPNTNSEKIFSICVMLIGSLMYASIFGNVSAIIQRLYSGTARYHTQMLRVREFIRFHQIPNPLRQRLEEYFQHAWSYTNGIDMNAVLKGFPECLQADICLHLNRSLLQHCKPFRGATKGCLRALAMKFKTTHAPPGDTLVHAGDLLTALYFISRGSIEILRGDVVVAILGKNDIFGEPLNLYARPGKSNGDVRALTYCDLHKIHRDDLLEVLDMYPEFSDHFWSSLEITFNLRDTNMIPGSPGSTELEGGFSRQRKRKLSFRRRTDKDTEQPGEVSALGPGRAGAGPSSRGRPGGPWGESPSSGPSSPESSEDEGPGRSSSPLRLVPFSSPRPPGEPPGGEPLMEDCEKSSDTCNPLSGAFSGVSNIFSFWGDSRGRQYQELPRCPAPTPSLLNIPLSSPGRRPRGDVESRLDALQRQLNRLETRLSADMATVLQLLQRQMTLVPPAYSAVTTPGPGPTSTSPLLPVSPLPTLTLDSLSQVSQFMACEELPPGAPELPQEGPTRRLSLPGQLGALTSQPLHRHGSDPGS

SMILES | hERG current change (%, negative = inhibition) at 1uM [%]
Cc1ncoc1C(=O)N1CCc2c([nH]c3ccccc23)C1C1CCCCC1 (stereo not shown) | 15.8
C=CCN(c1ccc(C(=O)NCCCn2ccnc2)cc1)S(C)(=O)=O | 15.5
COCCN(CC1CCCN(C2Cc3ccccc3C2)C1)C(=O)c1ccc(C(C)=O)cc1 (stereo not shown) | -51.9
O=C(CCS(=O)(=O)c1ccccc1)Nc1ccc2c(c1)C(=O)NC2=O | 7.64
Cc1ccc(S(=O)(=O)N2CCCC(C(=O)N3CCCc4ccccc43)C2)cc1 (stereo not shown) | 13.3
O=C(Nc1nnc(Cc2ccccc2)s1)c1ccco1 | 9.57
O=C(CN1CCC(n2nnc3ccccc32)CC1)NCc1cccs1 | -47.3
CC1=Nc2cc(C(=O)O)ccc2Sc2ccc(C)cc21 | 27.5
CN1CCN(c2nc3ccccn3c(=O)c2C=O)CC1.Cl | 15.2
CCOc1ncccc1C(=O)Nc1nnc(C2CC2)s1 | 7.35
COc1cccc(-c2nc(Cc3ccc(OC)c(OC)c3)no2)c1 | 8.35
COc1ccc(/C=C/C(=O)NC(=S)N2C[C@H]3C[C@H](C2)c2cccc(=O)n2C3)cc1 | -6.48
CO/N=C/c1c(-c2ccc(Cl)cc2)nc2cc(C)ccn12 | 19.8
CC(=O)Nc1ccc(NC(=O)COC(=O)c2c3c(nc4ccccc24)CCN(Cc2ccccc2)C3)cc1 | -1.91
CCc1ccc(NC(=O)CSCc2nc(N)nc(Nc3ccccc3CC)n2)cc1 | 10.9
O=C(CSc1nnc(CNC(=O)c2c(F)cccc2F)o1)NCCc1ccccc1 | 3.03
Cc1ccccc1C(=O)NCc1ccncc1 | -6.97
CC/C(=N\NS(C)(=O)=O)c1ccccc1 | 6.87
O=C(CN1CCN(c2ccccc2)CC1)Nc1nnc(-c2ccccc2)s1 | 9.03
COc1ccc(OC)c(S(=O)(=O)Nc2ccc(O)c(Sc3ncn[nH]3)c2)c1 | -3.39

SMILES | hERG current change (%, negative = inhibition) at 1uM [%]
O=C(CSc1nnnn1-c1ccc2c(c1)OCCO2)Nc1nc2c(s1)CCCC2 | 11.9
CCSc1nnc(NC(=O)/C=C/c2ccco2)s1 | 2.42
O=C(CN(CC1CCCO1)C(=O)CCC(=O)Nc1nccs1)NCc1ccccc1 (stereo not shown) | 9
Nn1c(SCC(=O)Nc2ccc3c(c2)OCCO3)nnc1-c1ccccn1 | -4.65
C/C(=C\C(=O)O)CC(=O)O | 1.12
COc1cc(C(=O)NC(=S)Nc2cccc3nc(C)ccc23)cc(OC)c1OC | -0.514
CCn1c(SC(C)C)nnc1C1CCN(S(=O)(=O)c2ccc(OC)cc2)CC1 | 8.11
C#CCOc1nc(C)cc(C)c1S(=O)(=O)c1ccccc1C | 10.9
CCn1nccc1C(=O)Nc1nccs1 | 13.5
CCOC(=O)N1CCN(C(=O)CSCc2nc(-c3ccccc3C)oc2C)CC1 | -6.84
Oc1cccc2cc3cccc(O)c3c(O)c12 | 7.99
CCC1CCCCN1CCCNC(=O)CSc1nc2nc(C)c(Cc3ccccc3Cl)c(C)n2n1 (stereo not shown) | 4.2
O=Cc1c[nH]c2ccc(C(=O)c3ccccc3)cc12 | 12.2
O=C(c1ccoc1)N1CCC2(CC1)Oc1ccc(Cl)cc1C(=O)C21CC(c2ccc(Cl)cc2)=NO1 (stereo not shown) | 19.5
CCOC(=O)CCn1nc(-c2ccccc2)cc1N | 6.61
CNC(=O)N/N=C(\N)c1ccccn1 | 17
CC(Oc1cccc(Cl)c1)C(=O)Nc1ccncc1 (stereo not shown) | 4.24
O=c1c(CO)cc(CO)cc(CO)c1O | 4.46
O=C(Nc1ccccc1)c1ccc(CSc2ccccn2)cc1 | 7.32
O=c1c2ccccc2nc(-c2ccccc2)n1-c1cccnc1 | -9.75

SMILES | hERG current change (%, negative = inhibition) at 1uM [%]
N#CCC(=O)NN=C1CCCCCCCCCCC1 | 13.4
O=C1Nc2ccccc2N(O)N1c1ccc(Cl)cc1 | 17.2
O=C(Nc1ccccc1C(=O)Nc1ccccc1C(=O)NCc1ccco1)c1ccco1 | 11.4
Cc1c(OC(C)C(=O)O)ccc2c3c(c(=O)oc12)CCCC3 (stereo not shown) | 10.8
CC(C)CC(NC(=O)CCC(=O)OCC(=O)[C@@]1(O)CCC2[C@@H]3CCC4=CC(=O)C=C[C@]4(C)C3[C@@H](O)C[C@@]21C)C(=O)O (stereo partly shown) | 6.47
O=C(NCc1ccc2c(c1)OCO2)c1ccc(CSCc2cccc(Cl)c2)o1 | -1.64
COc1cccc(CNC2CCCC2)c1 | -5.01
COC(=O)C1=C(c2ccc3ccccc3c2)C[C@@H]2CC[C@H]1N2C(=O)NC1CCCCC1 | 6.06
O=[N+]([O-])c1ccc(N/N=C/c2cn(Cc3ccc(F)cc3)c3ccccc23)nc1 | 11.3
CC(C)Oc1ccc(Cn2c(-c3ccco3)n[nH]c2=S)cc1 | 8.54
O=c1c2c3c(sc2nc2n1CCC2)CCCCC3 | 0.0069
COc1ccc(Nc2nc(-c3ccccc3)cs2)cc1 | -4.43
Cc1nnc(NC(=O)C2(c3ccccc3)CCOCC2)s1 | 12.6
Cc1ccc(C(=O)O)cc1NC(=O)CSc1ncnc2sc3c(c12)CCC3 | -4.56
COc1ccc(C(NC(=O)c2c(F)c(F)c(F)c(F)c2F)c2ccccc2)cc1 (stereo not shown) | 12.9
COc1ccc(C(=O)OCCNC(=O)c2c(Cl)nc3ccccn23)cc1.Cl | 5.9
CC(C)[C@]1(c2ccccc2)ON(c2ccccc2C(F)(F)F)C1=O | 8.52
Cc1cccc(NC(=O)Cn2cnc3ccccc3c2=O)c1C | -4.45
